Results published in PubChem BioAssay AID1030 (National Center for Advancing Translational Sciences (NCATS), 2008).
The whole screen tested about 220,000 compounds, of which about 16,000 (7.3%) were called active. This list was built around the results that the source calls inconclusive (neither active nor inactive); the mix of calls is not that of the screen. The call rests on the fitted dose curve; in most records, active means well fitted inhibition curve with a large enough effect (not every such curve was filed as active); inconclusive means small, poorly fitted or top-dose-only effect, or another doubt; inactive means no such curve, though single readings can be large or run the other way. Potencies of inconclusive entries are left out as doubtful fits. The source holds several records for some structures; these can differ, active in one and inactive in another.

Molecular target: Aldehyde dehydrogenase 1A1 (Homo sapiens) (UniProt P00352)
Assay: qHTS Assay for Inhibitors of Aldehyde Dehydrogenase 1 (ALDH1A1);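 on activity, negative = inhibition: plate controls were no enzyme wells and a reference inhibitor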
Settings: Purified ALDH1A1, NADH fluorescence, propionaldehyde substrate; series mostly up to 75.3 µM; activity, negative = inhibition: at the top concentration
Potency means the concentration at half of the fitted maximal effect; tags describe the fitted curve by direction and shape.

UniProt P00352, sequence (P00352 whole entry, looked up): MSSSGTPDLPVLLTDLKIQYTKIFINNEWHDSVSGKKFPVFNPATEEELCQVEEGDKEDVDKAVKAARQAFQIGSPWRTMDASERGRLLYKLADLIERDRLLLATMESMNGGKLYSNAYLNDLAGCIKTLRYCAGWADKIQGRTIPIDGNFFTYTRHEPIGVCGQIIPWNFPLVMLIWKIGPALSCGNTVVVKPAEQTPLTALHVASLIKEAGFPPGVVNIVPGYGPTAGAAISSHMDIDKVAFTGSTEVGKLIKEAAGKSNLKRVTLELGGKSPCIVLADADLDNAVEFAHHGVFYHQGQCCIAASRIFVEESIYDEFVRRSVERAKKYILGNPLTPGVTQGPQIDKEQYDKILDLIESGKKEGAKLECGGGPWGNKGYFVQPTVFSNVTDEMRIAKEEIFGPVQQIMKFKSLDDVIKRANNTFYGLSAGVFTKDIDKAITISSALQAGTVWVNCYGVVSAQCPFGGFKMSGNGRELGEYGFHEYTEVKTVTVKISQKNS

Row | SMILES | Potency | activity, negative = inhibition
1 | O=C(O)c1ccc(NC(=S)NC(NC(=O)c2ccco2)C(Cl)(Cl)Cl)cc1 (stereo unspecified) | active: 39.8 µM | –
2 | O=C(Nc1cccc(S(=O)(=O)N2CCOCC2)c1)c1ccc2c(=O)n3c(nc2c1)CCCCC3 | active: 5.62 µM | –
3 | COc1cccc(/C=N/Nc2ncnc3scc(-c4ccccc4)c23)c1OC | inconclusive [inhibitor, single point] | –
4 | Cc1ccc(S(=O)(=O)N2CCN(S(=O)(=O)c3ccccc3)C2c2ccc(N(C)C)cc2)cc1 (stereo unspecified) | inconclusive [inhibitor, single point] | –
5 | CCCOC(=O)c1ccc(OCC(O)Cn2c(C)nc3ccccc32)cc1 (stereo unspecified) | inconclusive [inhibitor, single point] | –
6 | CN=c1scc(-c2ccc(F)cc2)n1/N=C/c1ccc(O)c(O)c1 | inconclusive [inhibitor, single point] | –
7 | Cc1ccc(C(=O)Oc2oc(-c3ccccc3)nc2C=Nc2ccc(N(C)C)cc2)cc1 | inconclusive [inhibitor, single point] | –
8 | Cc1ccccc1-n1nnnc1SCC(C)C | active: 1.12 µM | –
9 | Cc1ccccc1N(CC(=O)N1CCOCC1)S(C)(=O)=O | inconclusive [inhibitor, single point] | –
10 | O=C(NN=C1CCCCCC1)c1ccc2c(c1)OCO2 | inconclusive [inhibitor, single point] | –
11 | O=C1C(Cl)=C(Nc2ccc(F)cc2)C(=O)N1CCc1ccccc1 | inconclusive [inhibitor, single point] | –
12 | O=C(OCCCN=C1NS(=O)(=O)c2ccccc21)c1ccccc1F | – | inactive: 8.59%
13 | CC(=O)NC(CC(=O)NC12CC3CC(CC(C3)C1)C2)c1ccccc1 (stereo unspecified) | – | inactive: 4.17%
14 | CCC(C)(C(=O)NC1CCCC1)N(CC1CCCO1)C(=O)CNC(=O)c1ccccc1 (stereo unspecified) | – | inactive: -9.28%
15 | CN(C)c1nc(-c2ccc([N+](=O)[O-])cc2)cs1 | – | inactive: 8.3%
16 | COc1ccc(-c2nc(Cn3c(SCc4ccc(C)cc4)nc4ccncc43)c(C)o2)cc1OC | inconclusive [inhibitor, full curve, poor fit] | –
17 | COc1ccc(C(=O)c2ccccc2)c(O)c1 | active: 31.6 µM | –
18 | CCN(CC)C(=O)N(CC)Cc1ccccc1 | – | inactive: 5.52%
19 | Cc1cc(C)n2nc3nc4c(cc3c2n1)CCCC4 | inconclusive [inhibitor, partial curve] | –
20 | c1ccc(COC2CCCN(Cc3nc(Cc4ccccc4)no3)C2)cc1 (stereo unspecified) | active: 14.1 µM | –
21 | CCCc1[nH]nc2c1C(CCc1ccccc1)C(C#N)=C(N)O2 (stereo unspecified) | inconclusive [inhibitor, single point] | –
